# About 550 (1.1%) of roughly 48,000 compounds were called active. Inconclusive results (about 4%) are left out. Cut-off read from the data, not from the text of the source: active = potency below about 15 µM; inconclusive = mostly about 16 µM to 33 µM; inactive = weaker than that. The list shows a part of the results.
# Biological target: Lysosomal acid glucosylceramidase (Homo sapiens) (UniProt P04062)
# Assay: Glucocerebrosidase;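 note: the screen sought inhibitors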
# Settings: purified enzyme, resorufin glucoside fluorescence (screen aimed at inhibitors), 20 min
# How it was run: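 Compounds titrated against 0.2 nM normal enzyme, 30 uM resorufin beta-D-glucopyranoside substrate, citrate/phosphate buffer with taurocholate and tween-20, pH 5.9. Reaction ran 20 min at room temperature; fluorescence (Ex 548/Em 600) gave AC50.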
# Potency is the fitted concentration of half-maximal effect.
# UniProt P04062, sequence (P04062 whole entry, looked up): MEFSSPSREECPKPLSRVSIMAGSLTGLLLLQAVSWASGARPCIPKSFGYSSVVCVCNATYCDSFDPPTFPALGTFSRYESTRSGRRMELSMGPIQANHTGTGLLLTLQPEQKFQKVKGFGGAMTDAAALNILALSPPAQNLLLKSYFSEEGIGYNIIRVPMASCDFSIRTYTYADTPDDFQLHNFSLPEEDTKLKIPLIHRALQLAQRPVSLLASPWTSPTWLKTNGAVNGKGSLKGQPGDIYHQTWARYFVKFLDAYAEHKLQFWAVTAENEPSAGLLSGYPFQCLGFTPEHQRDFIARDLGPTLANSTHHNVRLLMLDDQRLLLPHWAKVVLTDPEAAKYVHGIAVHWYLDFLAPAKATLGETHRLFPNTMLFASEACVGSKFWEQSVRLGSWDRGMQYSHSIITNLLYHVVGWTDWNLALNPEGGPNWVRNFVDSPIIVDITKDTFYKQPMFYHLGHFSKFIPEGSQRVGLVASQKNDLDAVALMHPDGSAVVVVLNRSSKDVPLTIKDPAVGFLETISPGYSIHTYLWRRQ
row,Structure (SMILES),Potency
1,Cc1cc(NS(=O)(=O)c2ccc(NC(=O)COc3ccc(Cl)cc3)cc2)no1,inactive: > 76.9 µM
2,CCn1nnnc1-c1ccc(OC)c(S(=O)(=O)Nc2ccc(C(=O)OC)cc2)c1,inactive: > 76.9 µM
3,Cc1[nH]nc2c1C(c1ccc(-c3ccccc3C#N)o1)C(C#N)=C(N)O2 (configuration not stated),inactive: > 76.9 µM
4,CCOc1ccc(C(=O)Nc2c3c(nn2-c2cccc(Cl)c2)CS(=O)C3)cc1 (configuration not stated),inactive: > 76.9 µM
5,N#Cc1nc(-c2cccs2)oc1N1CCN(c2ccccc2)CC1,active: 8.29 µM
6,COc1ccc(-n2nc(C(=O)N3CCN(c4ccc(F)cc4)CC3)c3ccccc3c2=O)c(OC)c1,inactive: > 76.9 µM
7,CS(=O)(=O)N1CCCC(C(=O)NCCCN2CCOCC2)C1 (configuration not stated),inactive: > 76.9 µM
8,COC(=O)CCC(NC(=O)c1cc(-c2ccc3c(c2)OCCO3)oc1C)C(=O)OC (configuration not stated),inactive: > 76.9 µM
9,CCCn1c(SCc2ccccn2)nc2c1c(=O)n(C)c(=O)n2C,inactive: > 76.9 µM
10,COc1ccc(C(=O)N2CCN(C(=O)Cc3ccccc3)CC2)cc1OC,inactive: > 76.9 µM
11,O=C(NCc1ccc2c(c1)OCO2)c1cc(-n2cnnc2)ccc1Cl,inactive: > 76.9 µM
12,Cc1ccc(C)c(OCC(O)CN2C(C)CCCC2C)c1 (configuration not stated),inactive: > 76.9 µM
13,O=C(CSc1nnnn1Cc1ccccc1)NCC(=O)c1ccccc1,inactive: > 76.9 µM
14,COc1ccccc1CNC(=O)COC(=O)C1=COCCO1,inactive: > 76.9 µM
15,CC(NC(=O)C1C2C=CC(C2)C1C(=O)O)c1ccccc1 (configuration not stated),inactive: > 76.9 µM
16,COc1ccc(OC)c(S(=O)(=O)N2CCC(C(=O)Nc3cccc(C)c3C)CC2)c1,inactive: > 76.9 µM
17,COc1ccc2cc3cc(C(=O)N4CCN(Cc5ccc6c(c5)OCO6)CC4)oc3nc2c1,inactive: > 76.9 µM
18,CCOC(=O)c1ccc(NS(=O)(=O)c2ccc(SC)cc2)cc1,inactive
19,COC(=O)c1ccccc1NC(=O)c1c(O)c2cccc3c2n(c1=O)CCC3,inactive: > 76.9 µM
20,CCOC(=O)c1c(NC(=O)c2csc(C)c2)sc(C(C)=O)c1C,inactive: > 76.9 µM
21,COC(=O)c1cc(Cl)c(NS(=O)(=O)c2ccccc2)cc1OC,inactive: > 76.9 µM

row,Structure (SMILES),Potency
1,CCC(CC)NCc1ccc(OC)cc1OC,inactive: > 76.9 µM
2,Cn1c(CCNC(=O)c2cccs2)nnc1SCC(=O)N1CCN(c2ccccc2)CC1,inactive: > 76.9 µM
3,CCC(C)(C(=O)NC1CCCCC1)N(C(=O)C1CCC(=O)N1)c1ccc(C)cc1 (configuration not stated),inactive: > 76.9 µM
4,O=C(Nc1ccc2nn(-c3ccccc3)nc2c1)c1ccc(Br)o1,inactive: > 76.9 µM
5,C=C(C)COc1ccc(-c2nc(N)nc(C)c2Oc2ccccc2OC)c(O)c1,inactive: > 76.9 µM
6,Cc1ccc(CC(=O)Nc2nncs2)cc1,inactive: > 76.9 µM
7,CCN(C(=O)CN1CCN(c2ccc(O)cc2)CC1)c1c(N)n(Cc2ccccc2)c(=O)[nH]c1=O,inactive: > 76.9 µM
8,CC1Cc2ccccc2N1C(=O)CSc1nnc2n1C(C)(C)Cc1ccccc1-2 (configuration not stated),inactive: > 76.9 µM
9,COc1ccc(Br)cc1C(=O)NCc1cccnc1,inactive: > 76.9 µM
10,N#Cc1nc(-c2ccc(OCc3ccc(Cl)cc3)cc2)oc1NCc1cccnc1,inactive: > 76.9 µM
11,CC1(C)c2ccccc2N2CC(=O)NC21/C=C/c1ccco1 (configuration not stated),inactive: > 76.9 µM
12,CC1(C)CC(=O)C(C=NCCc2ccc(S(N)(=O)=O)cc2)=C(O)C1,inactive: > 76.9 µM
13,Cn1c(Cc2cccs2)nnc1SCC(=O)N1CCc2ccccc21,inactive: > 76.9 µM
14,Cc1cc(=O)[nH]c(Nc2c(C)n(C)n(-c3ccccc3)c2=O)n1,inactive: > 76.9 µM
15,COc1cc2c(cc1NC(=O)COC(=O)Cn1cnc3ccccc31)oc1ccccc12,inactive: > 76.9 µM
16,O=C(N1CCCCCC1)N1CCN(S(=O)(=O)N2CCCCC2)CC1,inactive: > 76.9 µM
17,CN(C)CCOc1nc(-c2ccccc2)nc2c1oc1ccccc12,inactive
18,CCOC(=O)N1CCN(C(=O)CSc2nc(-c3cccc(C)c3)ns2)CC1,inactive: > 76.9 µM
19,COCc1cc(C)nc2sc(C(=O)N3CCCC3)c(N)c12,inactive: > 76.9 µM
20,O=C(c1ccc(Cl)c(Cl)c1)N1CCOCC1,inactive: > 76.9 µM
21,CC1CCc2c(sc3ncnc(SCC(=O)N4CCN(C(=O)c5ccco5)CC4)c23)C1 (configuration not stated),inactive: > 76.9 µM

row,Structure (SMILES),Potency
1,O=C(CS(=O)(=O)c1c[nH]c2ccccc12)N1CCCCC1,inactive: > 76.9 µM
2,Cc1cccc(CC(=O)Nc2c3c(nn2-c2cccc(Cl)c2)CS(=O)C3)c1 (configuration not stated),inactive: > 76.9 µM
3,Cc1ccc(S(=O)(=O)N2CCC(C(=O)Nc3ccccc3N3CCCCC3)CC2)cc1,inactive: > 76.9 µM
4,O=C(CCCCn1c(=O)[nH]c2ccccc2c1=O)N1CCN(c2cccc(C(F)(F)F)c2)CC1,inactive: > 76.9 µM
5,Cc1ccc(C2(C(F)(F)F)NC(=O)N3CCCN=C3S2)cc1 (configuration not stated),inactive: > 76.9 µM
6,COc1ccc(OC)c(S(=O)(=O)N(C)CC(=O)Nc2cc(Cl)ccc2OC)c1,inactive: > 76.9 µM
7,CSc1cccc(NC(=O)c2nnn(Cc3ccccc3)c2N)c1,inactive: > 76.9 µM
8,Cc1cc(C)n(CC(O)CN2C(=O)NC(C)(C)C2=O)n1 (configuration not stated),inactive: > 76.9 µM
9,OC12CCCCC1C(c1ccc3c(c1)OCO3)N(Cc1ccc(F)cc1)CC2 (configuration not stated),inactive: > 76.9 µM
10,COc1ccc(S(=O)(=O)N2CCc3ccccc32)cc1C(=O)OCc1c(C)noc1C,inactive: > 76.9 µM
11,Cn1c(=O)oc2cc(S(=O)(=O)Nc3cccc4c3CCCC4)ccc21,inactive: > 76.9 µM
12,CCCCC(OC(=O)c1cc2occc2n1C)C(=O)NCC1CCCO1 (configuration not stated),inactive: > 76.9 µM
13,O=C(CN1C(=O)CSC1=O)Nc1ccc(C(=O)O)cc1,inactive: > 76.9 µM
14,CCn1c(N2CCN(CC(=O)Nc3cccc(C)c3C)CC2)nc2ccccc21,inactive: > 76.9 µM
15,Cc1ccc(-n2c(=O)[nH]cc(C(=O)Nc3ccc4c(c3)OCCO4)c2=O)cc1C,inactive: > 76.9 µM
16,Cc1ccc(C(=O)NC2CC(C)(C)NC(C)(C)C2)c(C)c1,inactive: > 76.9 µM
17,Cc1ccc2nsnc2c1S(=O)(=O)N(CCO)Cc1cc2cc3c(cc2[nH]c1=O)OCCO3,inactive: > 76.9 µM
18,COc1ccc(NC(=O)c2c(SC)nsc2SC)cc1,inactive: > 76.9 µM
19,Cc1cc(=O)[nH]c(SCC(=O)Nc2cccc(C(F)(F)F)c2)n1,inactive: > 76.9 µM
20,CCOc1ccc(C(F)(F)F)cc1NC(C)=O,inactive: > 76.9 µM
21,COc1ccc(S(=O)(=O)N(CC(=O)N2CCOCC2)c2cc(Cl)ccc2OC)cc1OC,inactive: > 76.9 µM

row,Structure (SMILES),Potency
1,CCN(CC)c1ccc(CN(C(=O)c2ccco2)C2CCS(=O)(=O)C2)cc1 (configuration not stated),inactive: > 76.9 µM
2,COC(=O)C1=C(C)NC(=O)NC1/C=C/c1ccccc1 (configuration not stated),inactive: > 76.9 µM
3,OCc1nnn(-c2cccc(C(F)(F)F)c2)c1CO,inactive: > 76.9 µM
4,Cc1cc(C)c2[nH]c(=O)c(CN(C(=O)C3CCCO3)C3CCCC3)cc2c1 (configuration not stated),inactive: > 76.9 µM
5,CCOC(=O)c1c(NC(=O)COC)sc2c1CCCC2,inactive: > 76.9 µM
6,CCOC(=O)c1ccc(N2C(=O)CC(N3CCOCC3)C2=O)cc1 (configuration not stated),inactive: > 76.9 µM
7,O=C(CSc1nnnn1C1CCCCC1)Nc1ccc2c(c1)OCO2,inactive: > 76.9 µM
8,O=C(NCc1ccccc1)c1ccc(-c2ccccc2F)o1,inactive: > 76.9 µM
9,CCCOc1ccc2oc(=O)c3c(c2c1)CCCN3C(=O)CN1CCN(C(=O)c2ccco2)CC1,inactive: > 76.9 µM
10,COc1ccc(OC)c(N(CC(=O)N2CCN(c3cc(Cl)ccc3C)CC2)S(C)(=O)=O)c1,inactive: > 76.9 µM
11,N#Cc1c[nH]n2c(=O)cc(Cc3ccccc3)nc12,inactive: > 76.9 µM
12,Cc1nn(Cc2ccccc2)c(Cl)c1C(=O)NCc1ccc(C)n1C,inactive: > 76.9 µM
13,CCCS(=O)(=O)NCCc1cc2cc(C)c(C)cc2[nH]c1=O,inactive: > 76.9 µM
14,COc1ccc(NC(=O)CSC2CCCCC2)cc1,inactive: > 76.9 µM
15,CC(C)Cn1c2c(c(O)c(C(=O)Nc3ccc(F)cc3)c1=O)CCCC2,inactive: > 76.9 µM
16,O=C(O)C1CCCCC1C(=O)NC1CCCCC1 (configuration not stated),inactive: > 76.9 µM
17,O=C(COc1ncnc2ccc(Br)cc12)Nc1ccc(N2CCOCC2)cc1,inactive: > 76.9 µM
18,CCCCn1nnc(NC(=O)Cc2ccc(Cl)cc2)n1,inactive: > 76.9 µM
19,Cn1c(=O)c2c(nc(NCCc3ccccc3)n2Cc2ccccc2)n(C)c1=O,inactive: > 76.9 µM

# Reference: PubChem BioAssay AID360 (National Center for Advancing Translational Sciences (NCATS), 2006)
